# ± gives the standard deviation of the averaged measurements. This is one part of the list.
# Tested on: PfAP2-LT AP2 domain (GST-tagged)
# Experiment: gcPBM binding intensity (ln(normalized median fluorescence intensity)); higher = stronger DNA binding
# Method in brief: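 GST-tagged P. falciparum DNA-binding domains produced in E. coli were incubated for 1 h on an Agilent 4 × 180k array of primer-extended double-stranded 36-bp intergenic genomic probes with negative controls. Binding intensity is the highest Masliner-normalised natural-log median intensity across replicate spots of either probe orientation, with bound protein detected by Alexa488 anti-GST antibody at 488 nm.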
row,Sequence,gcPBM binding intensity (ln)
1,AAAAGAAAAATGTCATATGATATCATATATTTTATA [GTGCAC_negctrl_site185],8.52 ± 0.49
2,AAAAATATGTGATAATGTACTTTTCATTTTTATTTT [XGTACX_site8544],8.63 ± 0.46
3,ATAATTATATATATATGTACATATTATATATATATA [XGTACX_site4526],8.79 ± 0.33
4,ATATACATATATATATGTACTGAAAAGAAAAGAATT [XGTACX_site150],8.88 ± 0.39
5,CATAAATACATACATACACACATATTTATATTTATA [CACACA_site7071],9.16 ± 0.4
6,TGTTTTTAAATTTAAATCAAAAAATAAAATAAAATA [GTGCAC_negctrl_site355],8.19 ± 0.46
7,TACATATATATAAATACACACACACCCACCTTATAA [CACACA_site9346],9.88 ± 0.15
8,TTTTTATTTTATAATATATTCCTTTTCCTTTCTTTC [CACACA_negctrl_site245],8.54 ± 0.69
9,ATACATATACACATATGTACATATGAAAAGAAAAAT [XGTACX_site6445],9.12 ± 0.47
10,TTATTAGAAAAATGCACACCAAAAAAAAAAAAAAAA [CACACA_site2522],8.79 ± 0.39
11,TATATATATTGTGTATGTACATATATATAAATATTG [XGTACX_site433],8.71 ± 0.38
12,AATATAATATAATGCACACATAAACAAAAAAAAAAT [CACACA_site1304],9.29 ± 0.41
13,TTCATTTGAAAACTGTGTACTTAAAAATATACATAT [XGTACX_site176],8.61 ± 0.44
14,ATATATTTAAATAAATGTACAAATCATAAATTCAAG [XGTACX_site1417],8.73 ± 0.42
15,TATATATTTTATTATTGTACGAATTATTTATTTTAC [XGTACX_site8105],8.81 ± 0.49
16,TACATCATCTATAAGGTGCATTTTAGTTCTATTAAA,8.48 ± 0.42
17,TTTTTTCTAATATCTTTGCCTTTTTCTTTATTTATT [CACACA_negctrl_site1053],8.7 ± 0.66
18,ATATATATATATATATGTACATATGTATGTGTTTGT [XGTACX_site397],9.915 ± 0.0071
19,TATACTCATTTTTATACACACTTGTTTTATAAAACG [CACACA_site4561],8.86 ± 0.42
20,AAATTTATTATGAACATACACACAAAAAAAAAAAGT [CACACA_site2053],9.3 ± 0.39
21,CTATATGTATAAAGTTGTACAGTTTTTCAAAGTTAA [XGTACX_site6652],8.53 ± 0.43
22,TACTTTTATATAGAAAGTACATACAATTCATAGAAT [XGTACX_site2182],8.51 ± 0.4

row,Sequence,gcPBM binding intensity (ln)
1,TTTTTTTTTTTTTTGTGTACATATAATGCACATTAT [XGTACX_site6505],8.72 ± 0.45
2,TATTGAAACCCACACGAACACACGTATTTCATAAAC [CACACA_site251],9.05 ± 0.36
3,TATAAAAAGCATAACACACACATGTCAATATAAATA [CACACA_site6648],9.3 ± 0.28
4,ATGGACATTTTATAAATCACAATGGATATTTTATAA [CACACA_negctrl_site1830],8.41 ± 0.42
5,GTTTTACACAGACATGCATGTGAAAATTTGATGGTA [TGCATGCA_site308],9.15 ± 0.35
6,TATCATCATGTATGTACACACATACCTATATTATGT [CACACA_site6768],9.38 ± 0.43
7,TTTATTTCTATATTTACATGCAAAGGGTTAGTTATA [TGCATGCA_site983],8.54 ± 0.38
8,GATCTTTTTTTTCTTACTTTACAATTTTTTTTTTAC [XGTACX_negctrl_site101],8.74 ± 0.53
9,TTTTTTTTTTTCATGTGTACATATATTTTCACTTTA [XGTACX_site4475],8.94 ± 0.57
10,AAGAAAAAGAATAGACGGACAACTAATATAAAATAT [XGTACX_site7905],8.98 ± 0.54
11,AAAAGTAACAAAGCTACACACATTTAAATAAACATA [CACACA_site1421],9.05 ± 0.5
12,AAAATAACAAAATAAAGTACTTTTAAAAGATATAAT [XGTACX_site7632],8.87 ± 0.57
13,GATTTTCTAATTTCTACACACATATAAGAATATTCA [CACACA_site7340],8.82 ± 0.39
14,TTTTTAATTCAAACAATAATATGTTATATTTCAAAT [TGCATGCA_negctrl_site27],8.21 ± 0.41
15,TGTATAAAACATGGGTGTACTGAACTCAATCATATA [XGTACX_site1215],8.78 ± 0.36
16,TAAAATTATATAAAGGAACACACATTTTATTTTATT [CACACA_site8423],8.62 ± 0.49
17,TCATTGTTAAGCTGAAGTACTTATAATTACATCGAG [XGTACX_site6340],8.67 ± 0.33
18,AATATATTTTAATATACACACATATCTGCTCTTTAA [CACACA_site6130],8.94 ± 0.41
19,TGTCAATCATATAAATGTACATTTTAAATGAGGTGT [XGTACX_site7391],8.84 ± 0.34
20,TATTAGCATGTTATTACACACAATATAAAATATATA [CACACA_site1401],8.82 ± 0.34
21,GAAAAGAAAAATAAACGTACATAAATATTAACATTA [XGTACX_site8213],8.77 ± 0.51
22,CAAATAAAAATAAGGAGTACAATTAAAAAAGGAAGG [XGTACX_site4366],8.89 ± 0.57

# Source: the supplement of paper PMC11417369
